Source: PubChem BioAssay AID445 (National Center for Advancing Translational Sciences (NCATS), 2006)
“And” between values parts separate entries of the source, which are not always exact repeats. Identical values can stand only once. About 40 (0.04%) of roughly 110,000 compounds were called active. Inconclusive means that the source gave no clear call. Such entries were picked first, then a sample of the others. Calls come from the whole dose curve; as a rule, active = well fitted curve in the direction sought with a large enough effect in the signal ratio (not every such curve was filed as active); inconclusive = small, poorly fitted or top-dose-only effect, or a change in a side signal; inactive = flat fitted curve, though single readings scatter; the % refers to the signal ratio. A potency beside an inconclusive call is a rough fit, not a confirmed value.

Assay: IkB Signaling;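 for IkBa stabilization activation: 0% = basal untreated cells and 100% = reference inhibitor full response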
Settings: ABC-DLBCL IkBa-CBG/CBR dual luciferase ratio (green luciferase fused to IkBa over red control in OCI-Ly3 lymphoma cells), 4 h; IkBa stabilization activation: at 57.1 µM (top of the series), scaled: untreated 0%, proteasome inhibitor 100% unless noted
Method in brief: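 Curves were fitted separately to fusion (green), unfused (red) and ratio luminescence, then classed by r2, magnitude and activity. Cells: OCI-Ly3, 4 h compound plus doxycycline at 37C; 10 uM MG-132 defined full response.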
Potency is the fitted concentration of half-maximal effect.

SMILES | IkBa stabilization activation | Potency
CCc1cccc(NC(=O)c2ccc3c(=O)n4nc(Nc5ccccc5OC)sc4nc3c2)c1 | inactive: -0.25% | –
CCCN(CCC)CCNC(=O)c1cc(Sc2ccc(Cl)cc2)nc2ccccc12 | inconclusive: -0.227% [signal inhibitor] | –
Cc1ccc(S(=O)(=O)NCCCCCC(=O)Nc2nccs2)cc1 | inconclusive: 3% [signal inhibitor] | –
Cc1cccc(CSCCNC(=O)CN(c2ccccc2)S(=O)(=O)N(C)C)c1 | inconclusive: 11.5% [signal inhibitor] | –
COc1cccc(Cn2c(=O)c(-c3cccs3)nc3cnc(OCc4ccccc4)nc32)c1 | inactive: 3.65% [at 11.4 µM, scaled: untreated 0%, proteasome inhibitor 100%] | –
CCN(c1ccccc1)S(=O)(=O)c1nnc(NC(=O)COc2ccccc2F)s1 | inconclusive: 1.01% [signal inhibitor] | –
COc1ccc(-c2[nH]ncc2C(=O)NCc2ccccc2OC)cc1 | inconclusive: 2.68% [signal inhibitor] | –
Cc1ccc(Nc2cc(-c3ccccc3)nc(C)n2)cc1 | inconclusive: -0.602% [signal inhibitor] | –
COc1cc(C2C(=O)N(C3CCC(C)CC3)CC(=O)N2CCc2ccc(Cl)cc2)ccc1OC(C)C (stereo not drawn) | inactive: -0.194% | –
COc1cc2c(c(OC)c1OC)-c1ccc(OC)c(=O)cc1[C@H](NC(C)=O)CC2 | inconclusive: 19.1% [signal activator] [at 25.6 µM, scaled: untreated 0%, proteasome inhibitor 100%] | inconclusive: 2.51 µM [signal activator, partial curve] and inconclusive: 316 nM [signal activator, full curve]
CC(=O)Nc1ccc(S(=O)(=O)Nc2ccc3c(c2)n(C)c(=O)n3C)c(C)c1 | inconclusive: 17.7% [signal activator] | –
CCc1ccc(C2C(C#N)=C(N)SC(N)=C2C#N)cc1 | inconclusive: 0.44% [signal inhibitor] | –
N#CCSc1n[nH]c2nc3c(c(=O)n12)C1(CCCC1)Cc1ccccc1-3 | inconclusive: 2.57% [signal inhibitor] | –
CCc1ccc2oc(C(=O)Nc3nc(-c4ccccc4)ns3)c(C)c2c1 | inconclusive: -1.77% [signal inhibitor] | –
O=C(Nc1nc(-c2nc3ccccc3s2)cs1)C1COc2ccccc2O1 (stereo not drawn) | inconclusive: -9.26% [signal inhibitor] | –
COc1ccc(Cl)cc1NC(=O)c1nc(S(C)(=O)=O)ncc1N(Cc1ccc(C)cc1)Cc1ccco1 | inactive: 1.51% | –
Cc1ccc(C)c(NC(=O)Cn2c(=O)oc3cc(S(=O)(=O)NCc4ccccc4)ccc32)c1 | inconclusive: 0.453% [signal inhibitor] | –
Cc1cc2oc(C(=O)Nc3ccc(S(=O)(=O)Nc4onc(C)c4C)cc3)cc(=O)c2cc1C | inconclusive: 1.76% [signal inhibitor] | –
CCOC(=O)CCCCC(=O)c1[nH]c(=O)[nH]c1CSc1nc(C)cc(=O)[nH]1 | inactive: -1.02% | –
O=C(CSc1nc(=O)[nH]c2c1CCCC2)NCc1ccc(Cl)cc1 | inactive: -1.1% | –
CCOC(=O)c1c(NC(=O)/C=C/c2ccc(OC)cc2)sc2c1CCC(C)C2 (stereo not drawn) | inactive: 1.01% | –

SMILES | IkBa stabilization activation | Potency
Cc1ccccc1C(=O)Nc1sc2c(c1C(=O)N1CCC(C)CC1)CCCC2 | inconclusive: 3.58% [signal inhibitor] | –
CCN(CCCNC(=O)c1cc2c(=O)[nH]c3ccc(C)cc3c2s1)Cc1ccccc1 | inconclusive: 0.952% [signal inhibitor] | –
Cc1ccc(NC(=O)c2ccc(S(=O)(=O)N3CCCC3)cc2)cc1 | inconclusive: 2.4% [signal inhibitor] | –
COc1ccc(-n2nc3c(c2NC(=O)c2cc4ccccc4oc2=O)CS(=O)(=O)C3)cc1 | inactive: 3% | –
S=C(Nc1ccc2c(c1)Cc1ccccc1-2)Nc1ccc2c(c1)Cc1ccccc1-2 | inactive: -0.0663% [at 11.4 µM, scaled: untreated 0%, proteasome inhibitor 100%] | –
c1ccc(SCCSc2ccccc2)cc1 | inactive: -2.22% | –
COc1cccc(N2CCN(c3ncc4c(n3)CCN(Cc3ccc(Br)cc3)C4)CC2)c1 | inactive: -0.314% | –
O=C(OCC(=O)N1c2ccccc2Sc2ccccc21)C1CC(=O)N(Cc2ccco2)C1 (stereo not drawn) | inactive: 0.584% | –
CC(C)CCNC(=O)c1cccc(-n2cnc3cccnc32)c1 | inconclusive: -1.22% [signal inhibitor] | –
Cc1ccc(C(=O)COC(=O)c2cccc(NC(=O)c3ccc(Br)cc3)c2)cc1 | – | inconclusive: 15.8 µM [signal inhibitor, partial curve]
CCCn1nc(NC(=O)c2cccs2)c2cc3cc(OC)ccc3nc21 | inconclusive: 1.06% [signal inhibitor] | –
COc1cccc(CNC(=O)Cn2c(SCC(=O)Nc3ccc(F)cc3)nc3ccccc32)c1 | inconclusive: 11.5% | –
Cc1ccc2c(c1)-c1c(c(C(=O)NCCc3ccccc3)nn1C)CS2 | inconclusive: -0.235% [signal inhibitor] | –
CCCN(C(=O)Cc1c(C(=O)O)[nH]c2ccc(Cl)cc12)c1ccc(OCC)cc1 | – | inconclusive: 39.8 µM [signal inhibitor]
CCCCN(CC)CCCNC(=O)C1CCN(c2nc3ccc(CC)cc3s2)CC1 | inactive: 3.28% | –
CCOCCCNC(=O)c1[nH]c2cc(OC)ccc2c1Sc1ccccc1 | inconclusive: 1.95% [signal inhibitor] | –
Cc1ccc(S(=O)(=O)NCC(c2ccco2)N2CCN(c3ccccc3F)CC2)cc1 (stereo not drawn) | inactive: 0.296% | –
Cc1cccc(N(CC(=O)Nc2cccc(Cl)c2C)S(C)(=O)=O)c1C | inconclusive: 3.72% [signal inhibitor] | –
COc1ccccc1C(=O)Nc1ccccc1SCc1cc(=O)c2ccccc2[nH]1 | – | inconclusive: 1.26 µM [signal inhibitor, full curve]
Cc1nnc(SCC(=O)NCc2ccc(N(C)C)cc2)c2nn(-c3ccccc3)c(C)c12 | inconclusive: 1.68% [signal inhibitor] | –
COc1cccc(C(c2c(O)cc(C)n(Cc3ccco3)c2=O)N2CCC(C)CC2)c1 (stereo not drawn) | inconclusive: 2.86% [signal inhibitor] | –
